From the antibiotic and cytotoxicity screens of Wong et al. (2023)
The other results are listed elsewhere or left out.

Tests used:
HSkMC = human skeletal muscle cells; experiment: cytotoxicity call (relative viability < 0.9); settings: 10 µM
S. aureus RN4220 = experiment: growth inhibition call (relative growth <= 0.2); settings: 50 µM

Compound | cytotoxicity call (HSkMC) | growth inhibition call (S. aureus RN4220)
COc1ccc(NC(=O)Nc2ccc3c(c2)C(=O)N([C@@H](C)CO)C[C@H](C)[C@H](CN(C)Cc2ccc(-c4ccccc4)cc2)O3)cc1 | inactive | inactive
CN1C(=O)c2cc(NC(=O)Nc3ccccc3F)ccc2OC[C@H]2O[C@@H](CC(=O)NCc3ccc(-c4ccccc4)cc3)CC[C@@H]21 | inactive | inactive
Cc1noc(C)c1S(=O)(=O)N(C)C[C@@H]1Oc2ccc(NC(=O)NC(C)C)cc2CC(=O)N([C@@H](C)CO)C[C@H]1C | inactive | inactive
C[C@H]1CN([C@@H](C)CO)C(=O)c2cccc(NC(=O)Nc3ccc(C(F)(F)F)cc3)c2O[C@H]1CN(C)Cc1ccc(-c2ccccc2)cc1 | inactive | inactive
Cc1noc(C)c1NC(=O)Nc1cccc2c1O[C@@H](CN(C)Cc1ccc(Oc3ccccc3)cc1)[C@H](C)CN([C@@H](C)CO)C2=O | inactive | inactive
O=C(N[C@@H]1CC[C@H](CCNS(=O)(=O)c2ccccc2)O[C@@H]1CO)c1cnccn1 | inactive | inactive
COc1ccc2cc1/C=C\NC(=O)[C@H](Cc1ccccc1)NC(=O)[C@@H]1[C@H](CCN1C(=O)[C@@H](NC(=O)[C@@H](C)N(C)C)C(C)C)O2 | inactive | inactive
C[C@H]1CN([C@@H](C)CO)C(=O)Cc2cc(NC(=O)NC3CCCCC3)ccc2O[C@H]1CN(C)Cc1ccc(-c2ccccc2)cc1 | inactive | inactive
CC(C)NC(=O)Nc1ccc2c(c1)CC(=O)N([C@@H](C)CO)C[C@H](C)[C@@H](CN(C)S(=O)(=O)c1ccc(Cl)cc1)O2 | inactive | inactive
